pKd: −log10 of the molar value. Where two headings read alike, the source gives them in different places.
Tests used:
[1] = target: TP (MLV integrase C-terminal tail peptide) (Moloney murine leukemia virus); assay: ITC
[2] = target: TP (MLV integrase C-terminal tail peptide) (Moloney murine leukemia virus); assay: ITC; remark: listed apart in the source

In the case of BRD3 ET domain […] (sequence left out), the pKd [1] was 7.89 and the pKd [2] was 7.05.

Reference: publication PMC10150588
